{"source": "the supplement of paper PMC8728848", "experiment_in_all_cases": "glycan array binding signal (z-score within array); higher = stronger binding", "details_in_all_cases": "glycan notation: IUPAC condensed, linker removed", "key": {"Fuc(a1-2)Gal6S(b1-4)Glc": {"target": "Fuc(a1-2)Gal6S(b1-4)Glc", "outline": "(§1)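 Glycan array data were curated from 3228 arrays in the Consortium for Functional Glycomics database and kept only where the protein sequence was available. Glycan names were converted to IUPAC-condensed notation, and columns mapping to the same glycan were averaged. The binding signal is a within-array Z-score, averaged across arrays of the same protein sequence at different concentrations or buffers and across linkers. Negative Z-scores can be read as non-binding.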"}, "[1]": {"target": "Fuc(a1-2)Gal6S(b1-4)Glc6S", "outline": "as §1"}, "[2]": {"target": "Fuc(a1-2)Gal6S(b1-4)GlcNAc", "outline": "as §1"}, "Fuc(a1-2)[Gal(a1-3)]Gal": {"target": "Fuc(a1-2)[Gal(a1-3)]Gal", "outline": "as §1"}, "[3]": {"target": "Fuc(a1-2)[Gal(a1-3)]Gal(b1-3)GalNAc", "outline": "as §1"}, "[4]": {"target": "Fuc(a1-2)[Gal(a1-3)]Gal(b1-3)GlcNAc", "outline": "as §1"}, "[5]": {"target": "Fuc(a1-2)[Gal(a1-3)]Gal(b1-3)GlcNAc(b1-2)Man(a1-3)[Fuc(a1-2)[Gal(a1-3)]Gal(b1-3)GlcNAc(b1-2)Man(a1-6)]Man(b1-4)GlcNAc(b1-4)GlcNAc", "outline": "as §1"}, "[6]": {"target": "Fuc(a1-2)[Gal(a1-3)]Gal(b1-3)GlcNAc(b1-2)Man(a1-3)[Fuc(a1-2)[Gal(a1-3)]Gal(b1-3)GlcNAc(b1-2)Man(a1-6)]Man(b1-4)GlcNAc(b1-4)[Fuc(a1-6)]GlcNAc", "outline": "as §1"}, "[7]": {"target": "Fuc(a1-2)[Gal(a1-3)]Gal(b1-3)GlcNAc(b1-3)GalNAc", "outline": "as §1"}, "[8]": {"target": "Fuc(a1-2)[Gal(a1-3)]Gal(b1-4)Glc", "outline": "as §1"}, "[9]": {"target": "Fuc(a1-2)[Gal(a1-3)]Gal(b1-4)GlcNAc", "outline": "as §1"}, "[10]": {"target": "Fuc(a1-2)[Gal(a1-3)]Gal(b1-4)GlcNAc(b1-2)Man(a1-3)[Fuc(a1-2)[Gal(a1-3)]Gal(b1-4)GlcNAc(b1-2)Man(a1-6)]Man(b1-4)GlcNAc(b1-4)GlcNAc", "outline": "as §1"}, "[11]": {"target": "Fuc(a1-2)[Gal(a1-3)]Gal(b1-4)GlcNAc(b1-2)Man(a1-3)[Fuc(a1-2)[Gal(a1-3)]Gal(b1-4)GlcNAc(b1-2)Man(a1-6)]Man(b1-4)GlcNAc(b1-4)[Fuc(a1-6)]GlcNAc", "outline": "as §1"}, "[12]": {"target": "Fuc(a1-2)[Gal(a1-3)]Gal(b1-4)GlcNAc(b1-3)GalNAc", "outline": "as §1"}, "[13]": {"target": "Fuc(a1-2)[Gal(a1-3)]Gal(b1-4)GlcNAc(b1-6)GalNAc", "outline": "as §1"}, "[14]": {"target": "Fuc(a1-2)[Gal(a1-3)]Gal(b1-4)[Fuc(a1-3)]Glc", "outline": "as §1"}, "[15]": {"target": "Fuc(a1-2)[Gal(a1-3)]Gal(b1-4)[Fuc(a1-3)]GlcNAc", "outline": "as §1"}, "[16]": {"target": "Fuc(a1-2)[Gal(a1-3)]Gal(b1-4)[Fuc(a1-3)]GlcNAc(b1-3)GalNAc", "outline": "as §1"}, "[17]": {"target": "Fuc(a1-2)[Gal(a1-4)]Gal(b1-4)GlcNAc", "outline": "as §1"}, "[18]": {"target": "Fuc(a1-2)[GalNAc(a1-3)]Gal", "outline": "as §1"}, "[19]": {"target": "Fuc(a1-2)[GalNAc(a1-3)]Gal(b1-3)GalNAc(a1-3)[Fuc(a1-2)]Gal(b1-4)GlcNAc", "outline": "as §1"}, "[20]": {"target": "Fuc(a1-2)[GalNAc(a1-3)]Gal(b1-3)GlcNAc", "outline": "as §1"}, "[21]": {"target": "Fuc(a1-2)[GalNAc(a1-3)]Gal(b1-3)GlcNAc(b1-2)Man(a1-3)[Fuc(a1-2)[GalNAc(a1-3)]Gal(b1-3)GlcNAc(b1-2)Man(a1-6)]Man(b1-4)GlcNAc(b1-4)GlcNAc", "outline": "as §1"}, "[22]": {"target": "Fuc(a1-2)[GalNAc(a1-3)]Gal(b1-3)GlcNAc(b1-2)Man(a1-3)[Fuc(a1-2)[GalNAc(a1-3)]Gal(b1-3)GlcNAc(b1-2)Man(a1-6)]Man(b1-4)GlcNAc(b1-4)[Fuc(a1-6)]GlcNAc", "outline": "as §1"}, "[23]": {"target": "Fuc(a1-2)[GalNAc(a1-3)]Gal(b1-3)GlcNAc(b1-3)GalNAc", "outline": "as §1"}, "[24]": {"target": "Fuc(a1-2)[GalNAc(a1-3)]Gal(b1-3)GlcNAc(b1-6)GalNAc", "outline": "as §1"}, "[25]": {"target": "Fuc(a1-2)[GalNAc(a1-3)]Gal(b1-4)Glc", "outline": "as §1"}, "[26]": {"target": "Fuc(a1-2)[GalNAc(a1-3)]Gal(b1-4)GlcNAc", "outline": "as §1"}, "[27]": {"target": "Fuc(a1-2)[GalNAc(a1-3)]Gal(b1-4)GlcNAc(b1-2)Man(a1-3)[Fuc(a1-2)[GalNAc(a1-3)]Gal(b1-4)GlcNAc(b1-2)Man(a1-6)]Man(b1-4)GlcNAc(b1-4)GlcNAc", "outline": "as §1"}, "[28]": {"target": "Fuc(a1-2)[GalNAc(a1-3)]Gal(b1-4)GlcNAc(b1-2)Man(a1-3)[Fuc(a1-2)[GalNAc(a1-3)]Gal(b1-4)GlcNAc(b1-2)Man(a1-6)]Man(b1-4)GlcNAc(b1-4)[Fuc(a1-6)]GlcNAc", "outline": "as §1"}, "[29]": {"target": "Fuc(a1-2)[GalNAc(a1-3)]Gal(b1-4)GlcNAc(b1-3)Gal(b1-4)GlcNAc", "outline": "as §1"}, "[30]": {"target": "Fuc(a1-2)[GalNAc(a1-3)]Gal(b1-4)GlcNAc(b1-3)Gal(b1-4)GlcNAc(b1-3)Gal(b1-4)GlcNAc", "outline": "as §1"}, "[31]": {"target": "Fuc(a1-2)[GalNAc(a1-3)]Gal(b1-4)GlcNAc(b1-3)GalNAc", "outline": "as §1"}, "[32]": {"target": "Fuc(a1-2)[GalNAc(a1-3)]Gal(b1-4)[Fuc(a1-3)]GlcNAc", "outline": "as §1"}, "[33]": {"target": "Fuc(a1-2)[GalNAc(a1-3)]Gal(b1-4)[Fuc(a1-3)]GlcNAc(b1-3)GalNAc", "outline": "as §1"}, "[34]": {"target": "Fuc(a1-2)[GalNAc(a1-4)]Gal(b1-4)GlcNAc", "outline": "as §1"}, "[35]": {"target": "Fuc(a1-2)[GalNAc(b1-3)]Gal", "outline": "as §1"}, "Fuc(a1-3)GlcNAc": {"target": "Fuc(a1-3)GlcNAc", "outline": "as §1"}, "[36]": {"target": "Fuc(a1-3)[Gal(b1-4)]Glc6S", "outline": "as §1"}, "[37]": {"target": "Fuc(a1-3)[Gal(b1-4)]GlcNAc", "outline": "as §1"}, "[38]": {"target": "Fuc(a1-3)[Gal(b1-4)]GlcNAc(b1-2)Man", "outline": "as §1"}, "[39]": {"target": "Fuc(a1-3)[Gal(b1-4)]GlcNAc(b1-2)Man(a1-3)[Fuc(a1-3)[Gal(b1-4)]GlcNAc(b1-2)Man(a1-6)]Man(b1-4)GlcNAc(b1-4)GlcNAc", "outline": "as §1"}, "[40]": {"target": "Fuc(a1-3)[Gal(b1-4)]GlcNAc(b1-2)Man(a1-3)[Fuc(a1-3)[Gal(b1-4)]GlcNAc(b1-2)Man(a1-6)]Man(b1-4)GlcNAc(b1-4)[Fuc(a1-6)]GlcNAc", "outline": "as §1"}, "[41]": {"target": "Fuc(a1-3)[Gal(b1-4)]GlcNAc(b1-3)Gal(b1-3)[Fuc(a1-4)]GlcNAc", "outline": "as §1"}, "[42]": {"target": "Fuc(a1-3)[Gal(b1-4)]GlcNAc(b1-3)GalNAc", "outline": "as §1"}}, "note": "The other results are listed elsewhere or left out.", "data": [{"binder": "RVL (Remusatia vivipara), B5LYJ9 (protein) MAKLLLFLLPAILGLLVPRSAVALGTNYLLSGQTLDTEGHLKNGDFDLVMQDDCNLVLYNGNWQSNTANNGRDCKLTLTDYGELVIKNGDGSTVWKSGAQSVKGNYAAVVHPDGRLVVLGPSVFKIDPWVRGLNSLRFRNIPFTNNLLFSGQVLYGDGRLTAKNHQLVMQGDCNLVLYGGKYGWQSNTHGNGEHCFLRLNHKGELIIKDDDFKTIWSSRSSSKQGEYVLILQDDGFGVIYGPAIFETSSKRSIAAS", "values": [{"measurement": "glycan array binding signal (z-score)", "setting": "Fuc(a1-2)Gal6S(b1-4)Glc", "value": -0.251}, {"measurement": "glycan array binding signal (z-score)", "setting": "[1]", "value": -0.151}, {"measurement": "glycan array binding signal (z-score)", "setting": "[2]", "value": 0.052}, {"measurement": "glycan array binding signal (z-score)", "setting": "Fuc(a1-2)[Gal(a1-3)]Gal", "value": -0.241}, {"measurement": "glycan array binding signal (z-score)", "setting": "[3]", "value": -0.134}, {"measurement": "glycan array binding signal (z-score)", "setting": "[4]", "value": 0.119}, {"measurement": "glycan array binding signal (z-score)", "setting": "[5]", "value": 0.126}, {"measurement": "glycan array binding signal (z-score)", "setting": "[6]", "value": -0.642}, {"measurement": "glycan array binding signal (z-score)", "setting": "[7]", "value": -0.03}, {"measurement": "glycan array binding signal (z-score)", "setting": "[8]", "value": -0.124}, {"measurement": "glycan array binding signal (z-score)", "setting": "[9]", "value": -0.261}, {"measurement": "glycan array binding signal (z-score)", "setting": "[10]", "value": 0.241}, {"measurement": "glycan array binding signal (z-score)", "setting": "[11]", "value": 1.39}, {"measurement": "glycan array binding signal (z-score)", "setting": "[12]", "value": 0.041}, {"measurement": "glycan array binding signal (z-score)", "setting": "[13]", "value": -0.215}, {"measurement": "glycan array binding signal (z-score)", "setting": "[14]", "value": -0.32}, {"measurement": "glycan array binding signal (z-score)", "setting": "[15]", "value": 0.086}, {"measurement": "glycan array binding signal (z-score)", "setting": "[16]", "value": -0.037}, {"measurement": "glycan array binding signal (z-score)", "setting": "[17]", "value": -0.051}, {"measurement": "glycan array binding signal (z-score)", "setting": "[18]", "value": -0.204}, {"measurement": "glycan array binding signal (z-score)", "setting": "[19]", "value": -0.113}, {"measurement": "glycan array binding signal (z-score)", "setting": "[20]", "value": -0.073}, {"measurement": "glycan array binding signal (z-score)", "setting": "[21]", "value": -0.107}, {"measurement": "glycan array binding signal (z-score)", "setting": "[22]", "value": 0.29}, {"measurement": "glycan array binding signal (z-score)", "setting": "[23]", "value": 0.198}, {"measurement": "glycan array binding signal (z-score)", "setting": "[24]", "value": -0.274}, {"measurement": "glycan array binding signal (z-score)", "setting": "[25]", "value": -0.268}, {"measurement": "glycan array binding signal (z-score)", "setting": "[26]", "value": -0.203}, {"measurement": "glycan array binding signal (z-score)", "setting": "[27]", "value": -0.259}, {"measurement": "glycan array binding signal (z-score)", "setting": "[28]", "value": 0.011}, {"measurement": "glycan array binding signal (z-score)", "setting": "[29]", "value": -0.302}, {"measurement": "glycan array binding signal (z-score)", "setting": "[30]", "value": 0.565}, {"measurement": "glycan array binding signal (z-score)", "setting": "[31]", "value": -0.163}, {"measurement": "glycan array binding signal (z-score)", "setting": "[32]", "value": -0.145}, {"measurement": "glycan array binding signal (z-score)", "setting": "[33]", "value": 0.393}, {"measurement": "glycan array binding signal (z-score)", "setting": "[34]", "value": -0.214}, {"measurement": "glycan array binding signal (z-score)", "setting": "[35]", "value": -0.108}, {"measurement": "glycan array binding signal (z-score)", "setting": "Fuc(a1-3)GlcNAc", "value": -0.069}, {"measurement": "glycan array binding signal (z-score)", "setting": "[36]", "value": -0.308}, {"measurement": "glycan array binding signal (z-score)", "setting": "[37]", "value": -0.108}, {"measurement": "glycan array binding signal (z-score)", "setting": "[38]", "value": -0.36}, {"measurement": "glycan array binding signal (z-score)", "setting": "[39]", "value": -0.104}, {"measurement": "glycan array binding signal (z-score)", "setting": "[40]", "value": 0.076}, {"measurement": "glycan array binding signal (z-score)", "setting": "[41]", "value": -0.121}, {"measurement": "glycan array binding signal (z-score)", "setting": "[42]", "value": 0.2}]}]}
